Laboratory results taken from publication PMC12136788.
The list shows a part of the results.

B1: chr13:107726893:107726894:-_ENSMUSG00000042590_ENSMUST00000080856|mus_hu|FALSE|FALSE (ssRNA)
RNA: GGGAGUUCUACAGUCCGACGAUCCCCGCUCCCACUUCCCAACACGAAGUGGCGUCGGUUGGUCCCUCUCCCCACGCUGCCAGACCCCACGCCGCCGCCUACUGAUGCCGAAAGCGGCUUCUAGGAACACGCCAUGUUUGGCGUCAACAGAGGAUUGAGCAUCA
B2: chr17:17163782:17163783:-_ENSG00000141030_ENST00000268717|hu_mus|FALSE|FALSE (ssRNA)
RNA: GGGAGUUCUACAGUCCGACGAUCCAGCUCAGACGGGUUGUUGGUUGAAUAAACUUGUGCUAACUCAUGGUAAGCAUUGCUGAGAGGCUUAAUAAAUCUACCCACUAUUUGAGAGGUGUAUUUAGGCAGCUGUUGUACUUUGCCCAACAGAGGAUUGAGCAUCA
B3: chr15:51674161:51674162:-_ENSMUSG00000022312_ENSMUST00000022925|mus_mus|FALSE|FALSE (ssRNA)
RNA: GGGAGUUCUACAGUCCGACGAUCCUGAACAACCUCAGUGCCUUGUCCUUCUUCUUGAUAAUGUUUGAUUAUCUUUAAUACUACCAGGCCGUCGAUCUGCACCUGCUUCACGGCCGAAUCUCCGGAGCCGCCUUUGCCUUUGCCCAACAGAGGAUUGAGCAUCA
B4: chr2:153583694:153583695:+_ENSMUSG00000027479_ENSMUST00000028981|perfect_dup|FALSE|FALSE (ssRNA)
RNA: GGGAGUUCUACAGUCCGACGAUCGAAAAACUUCUUGAACCACUGAACGAAUUCAAAAUUGUCCUGAAACUUUCCUUUUACUAAUUUGUCCACAGGAAUUAUUUUGUCAACACCCAUUCUCUUAAAACCUGCUUGUAGUAUUUUCAACAGAGGAUUGAGCAUCA
B5: chr5:72858467:72858468:-_ENSG00000164331_ENST00000296785|hu_mus|motif|central (ssRNA)
RNA: GGGAGUUCUACAGUCCGACGAUCUUUAAAUAAGACAGAUGCCACCUCCAGGUCAGAGUUAACUUGAUCUUGAAUAUUUUUACGGUCCUCUUCAUUUAAGGACUUCACGAAUCGAGAACACACGUUCAUAUCAAAUCGGUUUGGCAACAGAGGAUUGAGCAUCA
B6: chrX:7458662:7458663:+_ENSMUSG00000031155_ENSMUST00000033495|mus_hu|motif|central (ssRNA)
RNA: GGGAGUUCUACAGUCCGACGAUCAAGCAGGGCACCAGAACCAAAAUCAAUGAGUUUGGCACAGCCACGGCGUAGGUCGGUCAGGAUGUUCUCAUCCUUGAUGUCACGAUGGACAACUCCACGGGAAUGGCAGUGCUGGAUGGCCAACAGAGGAUUGAGCAUCA

Target: T1, UNK ZnF1-3 (human, UniProt Q9C0B0 31-174)
T1 sequence: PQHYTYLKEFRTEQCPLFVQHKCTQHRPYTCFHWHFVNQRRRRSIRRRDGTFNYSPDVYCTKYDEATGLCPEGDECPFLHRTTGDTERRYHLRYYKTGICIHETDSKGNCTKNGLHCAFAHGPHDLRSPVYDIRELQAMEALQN
Assay: nsRBNS (natural sequence RNA bind-n-seq); RBNS binding buffer (assumed for nsRBNS): 25 mM Tris pH 7.5, 150 mM KCl, 3 mM MgCl2, 0.01% Triton X-100, 500 ug/ml BSA, 20 U/ml SUPERase-In, 4 C; UNK is unkempt and MSI1 is Musashi-1; names of the RNAs are library labels; protein concentration not given here; high values mean tight binding

Binder	binding signal [enrichment R]
B1	0.849
B2	0.841
B3	0.502
B4	0.847
B5	1.08
B6	1.25
